From the supplement of paper PMC8728848
Some of the results follow.

What was measured:
Assay in all cases: glycan array binding signal (z-score within array); higher = stronger binding
Details in all cases: glycan notation: IUPAC condensed, linker removed
Glc(b1-4)Glc = target: Glc(b1-4)Glc
Method in brief: (§1)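 Glycan array data came from 3228 arrays in the Consortium for Functional Glycomics database, and only arrays with an available protein sequence were kept. Glycan names were put into IUPAC-condensed notation, and columns mapping to the same glycan were averaged. The binding signal is a within-array Z-score, averaged across arrays of one protein sequence run at different concentrations or buffers and across linkers. A negative Z-score can be read as non-binding.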

Glc(b1-6)Glc = target: Glc(b1-6)Glc
Method in brief: as §1

GlcA(b1-3)Gal = target: GlcA(b1-3)Gal
Method in brief: as §1

GlcA(b1-3)GlcNAc = target: GlcA(b1-3)GlcNAc
Method in brief: as §1

GlcA(b1-6)Gal = target: GlcA(b1-6)Gal
Method in brief: as §1

[1] = target: GlcA3S(b1-3)Gal(b1-4)GlcNAc(b1-2)Man
Method in brief: as §1

[2] = target: GlcA3S(b1-3)Gal(b1-4)GlcNAc(b1-3)Gal(b1-4)Glc
Method in brief: as §1

[3] = target: GlcNAc(a1-3)Gal(b1-4)GlcNAc
Method in brief: as §1

[4] = target: GlcNAc(a1-4)Gal(b1-3)GlcNAc
Method in brief: as §1

[5] = target: GlcNAc(a1-4)Gal(b1-4)GalNAc
Method in brief: as §1

[6] = target: GlcNAc(a1-4)Gal(b1-4)GlcNAc
Method in brief: as §1

[7] = target: GlcNAc(a1-4)Gal(b1-4)GlcNAc(b1-3)Gal(b1-4)Glc
Method in brief: as §1

[8] = target: GlcNAc(a1-4)Gal(b1-4)GlcNAc(b1-3)Gal(b1-4)GlcNAc
Method in brief: as §1

[9] = target: GlcNAc(a1-4)Gal(b1-4)GlcNAc(b1-3)Gal(b1-4)GlcNAc(b1-3)Gal(b1-4)GlcNAc
Method in brief: as §1

[10] = target: GlcNAc(a1-4)Gal(b1-4)GlcNAc(b1-3)Gal(b1-4)[Fuc(a1-3)]GlcNAc(b1-3)Gal(b1-4)[Fuc(a1-3)]GlcNAc
Method in brief: as §1

[11] = target: GlcNAc(a1-6)Gal(b1-4)GlcNAc
Method in brief: as §1

[12] = target: GlcNAc(b1-2)Gal(b1-3)GalNAc
Method in brief: as §1

[13] = target: GlcNAc(b1-2)Man(a1-3)[GlcNAc(b1-2)Man(a1-6)]Man(b1-4)GlcNAc(b1-4)GlcNAc
Method in brief: as §1

[14] = target: GlcNAc(b1-2)Man(a1-3)[GlcNAc(b1-2)Man(a1-6)]Man(b1-4)GlcNAc(b1-4)[Fuc(a1-6)]GlcNAc
Method in brief: as §1

[15] = target: GlcNAc(b1-2)Man(a1-3)[GlcNAc(b1-4)][GlcNAc(b1-2)Man(a1-6)]Man(b1-4)GlcNAc(b1-4)GlcNAc
Method in brief: as §1

[16] = target: GlcNAc(b1-2)Man(a1-3)[GlcNAc(b1-4)][GlcNAc(b1-2)Man(a1-6)]Man(b1-4)GlcNAc(b1-4)[Fuc(a1-6)]GlcNAc
Method in brief: as §1

[17] = target: GlcNAc(b1-2)[GlcNAc(b1-4)]Man(a1-3)[GlcNAc(b1-2)Man(a1-6)]Man(b1-4)GlcNAc(b1-4)GlcNAc
Method in brief: as §1

[18] = target: GlcNAc(b1-2)[GlcNAc(b1-4)]Man(a1-3)[GlcNAc(b1-4)][GlcNAc(b1-2)Man(a1-6)]Man(b1-4)GlcNAc(b1-4)GlcNAc
Method in brief: as §1

[19] = target: GlcNAc(b1-2)[GlcNAc(b1-4)]Man(a1-3)[GlcNAc(b1-4)][GlcNAc(b1-2)[GlcNAc(b1-6)]Man(a1-6)]Man(b1-4)GlcNAc(b1-4)GlcNAc
Method in brief: as §1

[20] = target: GlcNAc(b1-2)[GlcNAc(b1-4)]Man(a1-3)[GlcNAc(b1-4)][GlcNAc(b1-2)[GlcNAc(b1-6)]Man(a1-6)]Man(b1-4)GlcNAc(b1-4)[Fuc(a1-6)]GlcNAc
Method in brief: as §1

[21] = target: GlcNAc(b1-2)[GlcNAc(b1-6)]Man(a1-6)[GlcNAc(b1-2)Man(a1-3)]Man(b1-4)GlcNAc(b1-4)GlcNAc
Method in brief: as §1

[22] = target: GlcNAc(b1-2)[GlcNAc(b1-6)]Man(a1-6)[GlcNAc(b1-2)Man(a1-3)]Man(b1-4)GlcNAc(b1-4)[Fuc(a1-6)]GlcNAc
Method in brief: as §1

[23] = target: GlcNAc(b1-2)[GlcNAc(b1-6)]Man(a1-6)[GlcNAc(b1-4)][GlcNAc(b1-2)Man(a1-3)]Man(b1-4)GlcNAc(b1-4)GlcNAc
Method in brief: as §1

GlcNAc(b1-3)Fuc = target: GlcNAc(b1-3)Fuc
Method in brief: as §1

GlcNAc(b1-3)Gal = target: GlcNAc(b1-3)Gal
Method in brief: as §1

[24] = target: GlcNAc(b1-3)Gal(b1-3)GalNAc
Method in brief: as §1

GlcNAc(b1-3)Gal(b1-4)Glc = target: GlcNAc(b1-3)Gal(b1-4)Glc
Method in brief: as §1

[25] = target: GlcNAc(b1-3)Gal(b1-4)GlcNAc
Method in brief: as §1

[26] = target: GlcNAc(b1-3)Gal(b1-4)GlcNAc(b1-2)Man(a1-3)[GlcNAc(b1-3)Gal(b1-4)GlcNAc(b1-2)Man(a1-6)]Man(b1-4)GlcNAc(b1-4)GlcNAc
Method in brief: as §1

[27] = target: GlcNAc(b1-3)Gal(b1-4)GlcNAc(b1-2)Man(a1-3)[GlcNAc(b1-3)Gal(b1-4)GlcNAc(b1-2)Man(a1-6)]Man(b1-4)GlcNAc(b1-4)[Fuc(a1-6)]GlcNAc
Method in brief: as §1

[28] = target: GlcNAc(b1-3)Gal(b1-4)GlcNAc(b1-2)[GlcNAc(b1-3)Gal(b1-4)GlcNAc(b1-6)]Man(a1-6)[GlcNAc(b1-3)Gal(b1-4)GlcNAc(b1-2)Man(a1-3)]Man(b1-4)GlcNAc(b1-4)GlcNAc
Method in brief: as §1

[29] = target: GlcNAc(b1-3)Gal(b1-4)GlcNAc(b1-3)Gal(b1-4)GlcNAc
Method in brief: as §1

B1: AFL5 (Aspergillus fumigatus), Q4WB00 (protein)
chain: MDNFMEMTKKLGHQPELLRLRALDATYDDALEGKLVVAPLDMSEPGKKILDSGTADGTWLRNVRSKQSVPHDYYGSDVEGELFPKDPDGITYFAHSFKDPWPQQYLGFFDLVHIRGSLAGSAPEGPAPVIQNLTTLLKPGGWVQLMEMNAFSPPPNGPAMTDFAKMASEMFTGIGVGDFANNNKSMLEDAGLKNVQEKRVIVNLGKKAKPELHDQSIHGVTGPIVPLTSVARTVKSSFTGEQLDALPARVKEELETEGGQVEMIIAFGQKA
Glc(b1-4)Glc
  glycan array binding signal (z-score): -0.076
Glc(b1-6)Glc
  glycan array binding signal (z-score): -0.495
GlcA(b1-3)Gal
  glycan array binding signal (z-score): 0.024
GlcA(b1-3)GlcNAc
  glycan array binding signal (z-score): 0.043
GlcA(b1-6)Gal
  glycan array binding signal (z-score): -0.217
[1]
  glycan array binding signal (z-score): 0.082
[2]
  glycan array binding signal (z-score): -0.288
[3]
  glycan array binding signal (z-score): -0.222
[4]
  glycan array binding signal (z-score): -0.636
[5]
  glycan array binding signal (z-score): -0.749
[6]
  glycan array binding signal (z-score): -0.335
[7]
  glycan array binding signal (z-score): -0.813
[8]
  glycan array binding signal (z-score): 0.353
[9]
  glycan array binding signal (z-score): -0.547
[10]
  glycan array binding signal (z-score): 0.139
[11]
  glycan array binding signal (z-score): 0.694
[12]
  glycan array binding signal (z-score): -0.494
[13]
  glycan array binding signal (z-score): -0.115
[14]
  glycan array binding signal (z-score): 0.047
[15]
  glycan array binding signal (z-score): 0.061
[16]
  glycan array binding signal (z-score): 0.115
[17]
  glycan array binding signal (z-score): -0.373
[18]
  glycan array binding signal (z-score): -0.125
[19]
  glycan array binding signal (z-score): -0.348
[20]
  glycan array binding signal (z-score): 0.042
[21]
  glycan array binding signal (z-score): 0.006
[22]
  glycan array binding signal (z-score): 1.09
[23]
  glycan array binding signal (z-score): 0.01
GlcNAc(b1-3)Fuc
  glycan array binding signal (z-score): 0.573
GlcNAc(b1-3)Gal
  glycan array binding signal (z-score): 0.055
[24]
  glycan array binding signal (z-score): 0.205
GlcNAc(b1-3)Gal(b1-4)Glc
  glycan array binding signal (z-score): -0.576
[25]
  glycan array binding signal (z-score): -0.568
[26]
  glycan array binding signal (z-score): -0.04
[27]
  glycan array binding signal (z-score): 0.456
[28]
  glycan array binding signal (z-score): 0.202
[29]
  glycan array binding signal (z-score): -0.215
